Measured values: the supplement of paper PMC3334620
The full ranking holds about 33,000 sequences; the median of “E-score (-0.5 to 0.5)” is about -0.053, and the highest 2% start at about 0.37. The list shows a part of the results.

Each sequence was assayed against Hap1 (UniProt P0CE41) (assay: PBM E-score (8-mer binding enrichment) (E-score (-0.5 to 0.5)); higher = stronger / more preferred TF binding; most listed sequences are background and not binding sites). Conditions: protein concentration: 200 nM; construct: GST-DNA-binding domain.
Method in brief: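 Full-length yeast transcription factors or their DNA-binding domains, GST-tagged and expressed with PURExpress, were applied at about 100-200 nM to universal all-10-mer Agilent arrays. These arrays had been made double-stranded by primer extension on fresh or once-stripped slides. Detection used fluorescent anti-GST, normalisation used masliner, and E-scores for ungapped eight-base words pooled with reverse complements came from the Universal PBM Analysis Suite.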

Sequence of UniProt P0CE41 (P0CE41 whole entry, the tested form may be a part): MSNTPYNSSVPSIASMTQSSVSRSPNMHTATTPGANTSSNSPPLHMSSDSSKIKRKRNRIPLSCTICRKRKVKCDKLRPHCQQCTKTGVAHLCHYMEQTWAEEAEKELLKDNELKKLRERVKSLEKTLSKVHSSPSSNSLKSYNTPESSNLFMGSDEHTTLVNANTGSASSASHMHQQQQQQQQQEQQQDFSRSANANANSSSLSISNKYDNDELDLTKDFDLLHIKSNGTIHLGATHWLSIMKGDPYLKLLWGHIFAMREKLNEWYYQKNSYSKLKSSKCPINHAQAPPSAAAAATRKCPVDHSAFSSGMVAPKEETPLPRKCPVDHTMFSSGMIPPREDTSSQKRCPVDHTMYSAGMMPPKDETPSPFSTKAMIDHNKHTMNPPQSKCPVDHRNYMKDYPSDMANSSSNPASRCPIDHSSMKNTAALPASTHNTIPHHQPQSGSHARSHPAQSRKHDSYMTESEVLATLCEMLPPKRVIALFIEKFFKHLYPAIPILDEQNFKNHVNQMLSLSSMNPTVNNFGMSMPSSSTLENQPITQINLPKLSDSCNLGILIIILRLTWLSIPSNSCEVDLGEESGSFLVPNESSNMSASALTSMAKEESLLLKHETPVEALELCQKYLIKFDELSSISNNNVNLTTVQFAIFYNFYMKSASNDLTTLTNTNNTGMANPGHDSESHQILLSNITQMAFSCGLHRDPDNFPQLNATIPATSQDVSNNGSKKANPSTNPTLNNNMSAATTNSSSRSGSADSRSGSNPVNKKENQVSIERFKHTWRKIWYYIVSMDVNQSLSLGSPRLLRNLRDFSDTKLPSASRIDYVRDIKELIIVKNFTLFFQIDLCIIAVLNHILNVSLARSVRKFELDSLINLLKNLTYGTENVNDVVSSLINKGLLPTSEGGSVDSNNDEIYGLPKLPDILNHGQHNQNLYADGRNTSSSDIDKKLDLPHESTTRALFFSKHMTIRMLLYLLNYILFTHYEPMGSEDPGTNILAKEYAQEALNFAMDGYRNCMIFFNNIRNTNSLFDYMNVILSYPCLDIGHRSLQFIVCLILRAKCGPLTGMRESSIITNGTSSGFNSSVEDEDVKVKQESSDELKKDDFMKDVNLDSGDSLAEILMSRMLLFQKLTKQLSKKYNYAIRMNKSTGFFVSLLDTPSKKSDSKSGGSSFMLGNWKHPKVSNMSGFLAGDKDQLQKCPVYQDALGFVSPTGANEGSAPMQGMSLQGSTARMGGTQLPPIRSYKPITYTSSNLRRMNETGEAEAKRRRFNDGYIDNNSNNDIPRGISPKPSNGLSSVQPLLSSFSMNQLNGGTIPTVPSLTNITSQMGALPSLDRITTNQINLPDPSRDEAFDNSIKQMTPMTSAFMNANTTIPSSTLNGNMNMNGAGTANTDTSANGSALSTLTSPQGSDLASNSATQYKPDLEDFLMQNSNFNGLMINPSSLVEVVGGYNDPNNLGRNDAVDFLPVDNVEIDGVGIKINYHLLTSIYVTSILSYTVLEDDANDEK

Sequence	PBM E-score
TATGATCA	-0.25
AGAGGTAA	-0.00854
GATCCGAA	0.379
ATGGAACA	-0.24
AGGGAAAC	-0.161
CCCTTAGC	0.113
CGTTAAAC	0.145
CACTAAAA	-0.0313
CCTACAGG	-0.128
TCTTTCCA	-0.0363
CCAGCCCG	0.133
ATAACAAG	-0.0403
AAAGGTAA	-0.168
CGATGGAC	0.0177
AATTCAAC	0.0932
CTCCGGAA	0.422
GACTACGC	-0.0641
ACTATCCG	0.268
ATATTTGG	-0.0588
CTCACTGA	-0.285
GGGCAGAC	0.0312
CACCGGCC	0.313
GGCAGTGA	-0.24
AAAAGTTA	-0.115
ACTTTCGA	-0.0578

Sequence	PBM E-score
GCGTACGC	0.0589
AATCGGCA	0.224
CAAAAGAG	-0.185
ATTATGAG	-0.044
ATCCACAG	-0.0282
AGTAGGGG	-0.0847
AGTCTTCA	-0.188
AAAGTTGT	0.0574
AACGAGGC	-0.0571
GGCTGTGA	-0.225
GAGCAACC	-0.0422
ATTAGACG	0.0149
ATTGAATA	-0.0697
CGAACGGC	0.163
GCATGACA	-0.341
CTTCGGCC	0.309
ATAGACAT	-0.193
GGAGACCC	0.0798
GATTGCCA	-0.00798
AACCAAAT	0.0673
CTGCGTTA	0.0146
TAAACCAA	-0.17
ATTTACTC	-0.0227
AGCGTAAT	-0.0155
CGGCTGCC	0.162

Sequence	PBM E-score
AGGATGTG	-0.109
ACGGGCCG	0.29
TCCAGTCA	-0.0585
GATTTAGC	0.18
CCAACGGG	0.228
CGGTATCA	0.22
GACGTCCC	0.0301
AGAACATG	-0.0473
AGGTCGGA	0.321
GCCCTTCA	-0.165
TGCTTAAA	-0.0635
CATGTATC	0.00111
AGAGCGTG	-0.113
CCATGACC	-0.0264
AGCCGCGC	0.114
AGGTGGCC	-0.0843
CACAAGGG	-0.352
ACACAGGT	-0.384
AGTGGGAC	-0.0427
ATAAGTAG	-0.117
ATGCGAAA	0.0186
CTTATCTA	0.0113
CCTTCCAG	-0.272
GGCCCGCA	0.157
AGATGCCA	-0.197

Sequence	PBM E-score
AATGAAGA	-0.139
GAGTCTTA	-0.142
GGTCTCCA	-0.137
CCTTGACG	-0.108
AATTACGA	0.0145
TATTTTCA	-0.0731
ACTCGTCG	-0.172
TCTGGGAA	-0.164
AGCTACCT	-0.0663
AATCGACA	0.0198
ATTGCGAG	-0.0394
GCCACCAA	-0.0202
CACACCAA	-0.0413
ATGTCATA	-0.118
GTTCTAGA	-0.0501
CTGCTCCA	-0.239
AGCTTTTG	-0.167
TCGTCGAA	-0.379
GGACACAC	0.21
CACTAGGG	-0.201
AGTACAAC	0.0179
ACTCAGGG	-0.191
CGAGCGCG	0.255
CCTAGTTC	-0.00076
CAATGCGG	0.0834

Sequence	PBM E-score
AAGTATAG	-0.201
AGGCAGCC	-0.0546
AAAACGGG	0.174
AATTGGGG	-0.0682
GAAGCTCA	-0.0573
CGCCTCCC	-0.146
AGAATGAA	-0.186
TAGTTGGA	-0.0576
TCGGCTAA	0.291
AGACGGTA	-0.091
GCTCAGAC	-0.228
AACCCGTT	0.198
ACTCGAGT	-0.261
CACCCAGC	0.0736
ACAACGGT	0.186
ACACGGTA	0.0749
AAACGATG	0.0211
ATATGGGC	-0.0119
TAGCTGCA	-0.23
CCACCGAC	0.129
TACAGATA	-0.00692
AAAGAGAT	-0.23
AATCCTGC	-0.0722
ACGCGCAC	0.0542
GAAGAGCA	-0.165

Sequence	PBM E-score
ATCCACCA	-0.215
CAAGAGCA	-0.164
CCACGCAA	-0.146
CTTGCTTA	-0.135
TACACCGA	0.287
AACCCGGT	0.365
ATATGCCA	-0.0262
GAAAAGGC	0.141
AACACATA	-0.211
GTGCCTGA	-0.191
TCAACAAA	-0.0582
CATAGTAG	-0.233
CTATGAGC	-0.251
AAGTCCCC	-0.0842
AACCCGGG	0.355
GAGGGTGA	-0.126
TAGCTAGA	-0.191
AAGTACGG	0.0925
CGGCACCG	0.34
AATGCCGC	0.295
CACGACTC	-0.0837
GAACAACC	0.184
CAATGCTC	-0.157
ATTGTAAG	-0.17
CAAACTTG	-0.117

Sequence	PBM E-score
GCAGTCGC	-0.261
ATAGGGGA	-0.116
GGCCGTGA	0.148
ATGAGGCA	-0.21
ATATGCGC	0.0604
ATATCATA	0.0408
GACGTTGC	0.0401
AGGTACCC	-0.28
CTTATAGC	-0.0598
CATCCAAC	-0.0274
AGACTGCC	-0.0881
CACCACCG	0.16
ACTAAGCT	-0.262
AGAAGCGG	0.0122
CCGTGGGC	0.291
AGCCAGTC	-0.124
AGTTTGAG	-0.0293
AGTATGAA	0.0714
CAGAGGGC	0.00727
ACTACAGG	-0.0138
ATGACGAA	-0.159
CTACCAGC	-0.319
ACTCGGAC	0.385
ACGGAATC	0.28
AAAAGTCG	-0.0425

Sequence	PBM E-score
GTGATTAA	0.0319
GATTCTAC	-0.0077
GCACGACA	-0.176
TCGAGAGA	-0.0617
GCAGCCAC	-0.0056
ATACTCCA	-0.15
ACCCTGTG	-0.188
CCCGGTTA	0.268
CGAACTCA	-0.00342
CAATCTCA	-0.165
CGGCCGCA	0.297
AAACCAGT	-0.276
AACTCCAT	0.139
GCGGTTCC	0.0594
AAACGCGT	0.0275
GATGTCGA	-0.0856
CTAAGCCC	0.142
AATATTTC	0.132
AGTTTGCG	-0.044
TAGGAGCA	-0.298
CTGCCCTA	-0.191
AAGAATGG	0.0742
CGATCGTA	-0.0164
AACTGGCG	-0.0139
CTACCTAG	-0.204

Sequence	PBM E-score
AAGGTAAT	-0.016
CGAGGGAC	-0.193
ATACGCTG	0.0262
ATTCTATA	0.0581
TCCTATCA	-0.0726
CATGGGCG	0.0306
CTAAGGTC	-0.243
GGACGAGA	0.241
CTACAAGC	-0.099
GGTAGCGA	-0.021
CTCGTTCC	0.0324
ACAAAATG	-0.0196
CGTCACAA	-0.0741
CGAGACCA	0.0818
ATTCGTAA	-0.14
GATACCGC	0.23
ATCATGTA	-0.282
CAGTTAGA	-0.152
GCCTGAGA	0.0572
AAGAACTC	-0.0344
ATGTCATG	-0.228
TATACACA	-0.256
GCAAGCAC	-0.244
ATGACACA	-0.107
CTTCCTCA	-0.237

Sequence	PBM E-score
AATTGATA	-0.165
ATGATCGC	0.209
CCCCTCTC	-0.0864
AGCGGGAA	0.207
CCTTAACC	-0.144
CGGATACA	0.385
AATTGACG	-0.113
GATTAGGC	0.0499
ACGATTAC	-0.164
CATGGCCA	-0.19
CCAGAGCA	-0.0247
AGATCCTG	-0.0691
CAGTACCA	-0.177
CCGCATCA	0.2
GTTACGCA	-0.0767
CAGTGGAA	-0.137
AGAAGTTC	-0.229
CTGCTTCC	0.0898
CTATACGC	-0.028
ATAATGGC	0.0861
GTCGAAAA	-0.0295
AATGCTCC	0.122
AGCCTGGG	-0.00831
CAACCTAG	-0.187
CAGTCCCA	-0.276

Sequence	PBM E-score
ATCCGGGG	0.399
TGGCGACA	-0.155
AATTAACA	-0.0987
TAAAACTA	-0.135
AAGGTGTA	-0.0687
CACTGCCA	-0.264
AAAGCATT	-0.164
CCATGCAA	0.0389
GCGACTAC	0.0144
ACAACTCC	0.13
ACTGGCTG	0.0393
GGGGGACC	-0.109
CGATCTAA	-0.0937
AACCCAGT	-0.0336
CAATGGTC	-0.186
CAAATCCG	0.344
AAAGGTTC	-0.127
TCAGTGCA	-0.0759
AAGGGAAG	-0.0953
CTTGGTCC	0.12
CACAACAG	-0.319
AGAATACG	0.00095
GAACACAC	-0.135
CAGCAGGA	-0.153
AACCGGGA	0.193

Sequence	PBM E-score
GCTTAACA	0.0307
CGGCCCCA	0.0542
ATCGAGCC	-0.0145
TCGGTGCA	0.291
TAGTGGAA	0.11
CTCACATA	-0.189
TGAAGGCA	-0.35
CATGCATA	-0.164
CGGCGATC	0.31
CCGGCAGA	0.254
GCGCCGGA	0.368
GACCAGGC	-0.266
ACGCTTAT	-0.157
AGATTAGC	-0.152
GTGCAGAA	-0.0502
AGAGACAG	-0.197
GAGTCCTA	-0.202
ATAGGGTA	-0.129
GCAGAGCA	-0.26
AACTCCAC	0.0468
AAGGTCAA	-0.194
CTTGCGAC	-0.0152
TAATTCCA	0.133
ATTTGGAA	-0.187
CTAGGATC	-0.0458

Sequence	PBM E-score
AGAATGAT	-0.0898
AAGTACTC	-0.147
CAATAGTA	-0.148
AAATCCAG	0.0422
GTTCGTAA	-0.078
GTTGTCCA	-0.223
AGCTGTGA	-0.188
CTTTAGTA	-0.168
TAGGTATA	-0.0795
AAATATGC	-0.0716
GAATGGAC	-0.116
CCGTATTA	0.159
AAATCCCA	-0.0185
CCAACCGC	0.153
GGTGGCTA	-0.148
TCCGCCCA	0.209
AAGATTAT	0.0146
CCGGGTCC	0.323
TAATACAA	-0.049
AATTTAGA	-0.0145
GATTATTA	0.0888
GTTGCAGA	-0.182
TTCTACAA	-0.169
TCCCTTAA	-0.119
CGCCTAGA	0.0566

Sequence	PBM E-score
CATAGGCA	-0.24
GGGAAGTA	0.0898
TCCCCGAA	0.335
GGTCCTAA	0.188
CCGCTGTA	0.02
CGCCCACG	0.13
ACGACTCA	-0.0362
CAATCGCA	-0.0861
GTCACTTA	0.0704
ATGGGCCG	0.209
TTAATTAA	-0.0765
GACGCATC	0.0595
ATTCGTCA	-0.151
ACCCTGAC	-0.121
GGATCTGA	-0.0297
AGTATCTA	-0.229
CCTTAGGC	-0.184
AGTGTGCG	-0.00284
ATGGTGTC	-0.209
